{"source": "PubChem BioAssay AID1845199", "about": "(Molecular Pharmacology Branch, DTP, NCI, 2023)", "test_system": "556581-035-R-J1 tumor spheroid viability, % test/control", "test": "Anticancer human tumor 556581-035-R-J1 patient-derived ovarian carcinoma cell line growth inhibition", "details": "stronger effect = lower value, spheroids with HUVEC and MSC", "description": "Multicellular complex tumor spheroid response to DNA repair inhibitors in combination with DNA-damaging drugs\nThis study explores the anticancer activities of DNA-damaging drugs and inhibitors of DNA damage repair, both as single agents and in combinations. Complex tumor spheroids comprised of malignant cells, endothelial cells and mesenchymal stem cells served as an in vitro model for human solid tumors. This model system incorporates physiologically relevant features and patient-derived or established malignant cell lines with clinically relevant genetic alterations from many tumor types. Twenty-six patient-derived or established malignant cell lines were evaluated representing sarcoma, melanoma, small cell lung cancer (SCLC), non-small cell lung cancer (NSCLC), as well as bladder, ovarian and pancreatic cancers. The concentration ranges selected for each drug and investigational agent were based upon clinically achievable concentrations if the clinical Cmax of the agent was known.\nCompounds. The drugs and compounds olaparib (NSC753686), talazoparib (NSC767125), berzosertib (NSC777718), elimusertib (NSC800525), nedisertib (NSC802822), VX-984 (NSC792969), AZD-1390 (NSC803789), temozolomide (NSC362856), topotecan (NSC609699), trabectedin (NSC813783), staurosporine (NSC755774), and gemcitabine (NSC613327) were obtained from the National Cancer Institute (NCI) Developmental Therapeutics Program Chemical Repository. The FDA-approved anticancer drug set is available from the Developmental Therapeutics Program at https://dtp.cancer.gov/organization/dscb/obtaining/available_plates.htm. […] The stock solutions were prepared in dimethyl sulfoxide (DMSO, Sigma-Aldrich, St. Louis, MO, cat. D2650) at 400-fold the tested concentration and stored at -70 degrees C. Prior to their use, the stock solutions were diluted in fresh medium and the final DMSO concentration in the assay was 0.25% (v/v). All drugs and investigational agents were tested over a range starting from a high concentration at or near the clinical Cmax and decreasing in half-log increments. If the clinical Cmax for an agent had not been determined, the highest concentration tested was 10 microM.\nCell Lines. The patient-derived cancer cell (PDC) lines: 156681-154-R-J1-PDC, 283228-195-R-J1-PDC, 287954-098-R-J1-PDC, 292921-168-R-J2-PDC, 349418-098-R-PDC, 425362-245-T-J1-PDC, 556581-035-R-J1-PDC, and BL0293-F563-PDC were received from the NCI Patient-Derived Models Repository (PDMR, https://pdmr.cancer.gov). The established cell lines HS-SY-2 (RRID:CVCL_8719), MPNST, and SYO-1 (RRID:CVCL_7146) were obtained from the Sloan Kettering Institute. The alveolar soft parts sarcoma cell line ASPS-1 (RRID:CVCL_S738) was established at the NCI and grown from internal seed stocks. […]", "note": "The source holds more than one record for some entries. This is not the full list of results. There may be further records. Results that share an entry are repeated measurements (runs, samples, wells, individuals or studies). Additions like (4×) give the number of equal values in this list.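 Further: spheroids exposed to compounds for 7 days before viability read.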", "data": [{"smiles": "COc1cc2c(cc1O)CCNC21CSC2c3c(OC(C)=O)c(C)c4c(c3C(COC1=O)N1C(O)C3Cc5cc(C)c(OC)c(O)c5C(C21)N3C)OCO4", "note": "(centres undefined)", "values": [{"measurement": "viability, T/C", "setting": "compound 30 pM", "value": "98.7, 113, 106, 102, 68.3, 103, 107, 105, 99.4, 97.4%"}]}, {"smiles": "Cn1nnc2c(C(N)=O)ncn2c1=O", "values": [{"measurement": "viability, T/C", "setting": "compound alone 3.16 µM", "value": "98, 94.7, 101 (2×), 117, 110, 104, 103, 106, 90.7%"}, {"measurement": "viability, T/C", "setting": "compound alone 100 µM", "value": "92.2, 104, 107, 94.2, 110 (2×), 106, 96.7, 130, 105%"}]}, {"smiles": "CC[C@@]1(O)C(=O)OCc2c1cc1n(c2=O)Cc2cc3c(CN(C)C)c(O)ccc3nc2-1", "values": [{"measurement": "viability, T/C", "setting": "compound alone 0.00949 µM", "value": "95.1, 103, 87.7, 76, 83.9, 90.9, 86.8, 90.7, 93.5, 84.8%"}]}]}
